To fix the notation:
B1: tRNA (parent)
chain: CUCUCGGUAGCCAAGUUGGUUUAAGGCGCAAGACUUUAAUUUAUCACUACGAAAUCUUGAGAUCGGGCGUUCGACUCGCCCCCGGGAGAUUUUUUCCUCGAGCAA

This sample is rich in variants without activity. A value given as a limit tells only on which side of the number the result lay.

Variants of B1 are the subject of the data set. Nature of the data set: nonsense suppression (GFP-seq) (ratio to wild type); higher = more function; SUP4oc tRNA, yeast GFP reporter sort-seq. The method, boiled down:
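Raffinose/galactose medium with 80 mg/L adenine was used to grow yeast carrying genome-integrated tRNA variants (~3% random-mutation library), RFP, and a galactose-driven GFP ochre reporter. Cells went into GFP/RFP bins, which were Illumina-sequenced, and variants with ≥100 reads and ≥30 cells were scored. Nonsense suppression (GFPSEQ) is the per-bin median GFP/RFP weighted by estimated cell share and expressed relative to the unmutated parent tRNA.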
Turning to G61C G78A C79U, the nonsense suppression was ≤ 0.026.
Next, U16C U21G G25A A31G C34A G73U: ≤ 0.026.
With C5U C82A, the nonsense suppression was ≤ 0.026.
C5U U8A A9C G10C C12U G25U A31G: the nonsense suppression was ≤ 0.026.
As for U21C G26U G67A C80G, the nonsense suppression was ≤ 0.026.
As to C1U G15U G78U, the nonsense suppression is ≤ 0.026.
In the case of G7A C56A G85A G88U it was ≤ 0.026; in that of A33G A89U, ≤ 0.026.
In the case of G7A A13G U17A U57G C72A, the nonsense suppression is ≤ 0.026.
Next, A33G G65A G85U: ≤ 0.026; U4G A23C G26U A62U G69C G84U: 0.116; C77A A89U: ≤ 0.026.
Consider A13U G69A, for which the nonsense suppression is 0.072.
In the case of G6C C77G it was ≤ 0.026.
For the variant A14G G59C, the nonsense suppression is ≤ 0.026.
As for A31U U58G G69A, the nonsense suppression is ≤ 0.026.
On to G19A G61U C64A, for which the nonsense suppression is ≤ 0.026.
As to A31C U58A, the nonsense suppression is ≤ 0.026.
Consider G7U A30G, for which the nonsense suppression was ≤ 0.026.
In the case of C1U U63C it was ≤ 0.026; in that of C1G G59U, ≤ 0.026.
Consider U57A G66A C82A, for which the nonsense suppression is ≤ 0.026.
For G6U C79U, the nonsense suppression is ≤ 0.026.
In the case of A14G A74C, the nonsense suppression was ≤ 0.026.
For the variant C1A U35G A60C G69A U70A, the nonsense suppression is ≤ 0.026.
In the case of G15A U20G G84C it was ≤ 0.026; in that of A23C A54G A89C, ≤ 0.026.
In the case of G15C G28U A62C G86C, the nonsense suppression was ≤ 0.026.
As for C75U A87U, the nonsense suppression is ≤ 0.026.
In the case of C75U A87C, the nonsense suppression is ≤ 0.026.
Next, C3U U4C U22A G73C: ≤ 0.026; G10C G86U: ≤ 0.026; G66U G85A: ≤ 0.026.
With C1U G84A, the nonsense suppression was ≤ 0.026.
Regarding C1A C3G U20C, the nonsense suppression is ≤ 0.026.
On to G7C C27A U57A C77G, for which the nonsense suppression is ≤ 0.026.
With A9U U57A G69A C80U, the nonsense suppression is ≤ 0.026.
For G61C G65U C81A, the nonsense suppression was ≤ 0.026.
In the case of C12A C34U it was 0.94; in that of G59U U70C C72A, ≤ 0.026; in that of U4G G6C U8A G78A, ≤ 0.026.
Take C5A G66C: the nonsense suppression is ≤ 0.026.
On to A33U U58C G69C, for which the nonsense suppression is ≤ 0.026.
For the variant C27A U35C G66C G88C, the nonsense suppression was ≤ 0.026.
For the variant U16C U71G, the nonsense suppression is ≤ 0.026.
Consider C5U A54U C82U, for which the nonsense suppression is ≤ 0.026.
In the case of U4A G59U it was ≤ 0.026.
Next, U2A U16A G59U: ≤ 0.026; U17C G18C: ≤ 0.026.
Next, U20C G78U: 0.0456.
Regarding C3U A23C G65U U76A G84U, the nonsense suppression is ≤ 0.026.
C1A U21G G26A: the nonsense suppression is ≤ 0.026.
As to U16A U35A C64A U71A, the nonsense suppression was ≤ 0.026.
For U20C A30C C56G A60C C81A G85A G88C, the nonsense suppression is ≤ 0.026.
C3A U57C C80G: the nonsense suppression was ≤ 0.026.
U2A U21G C68G: the nonsense suppression is ≤ 0.026.
Regarding U2A C11U, the nonsense suppression is ≤ 0.026.
Next, U8C U16A G61A: ≤ 0.026; C5G G19C G59A G78A: ≤ 0.026; U20A G59U U76C: ≤ 0.026.
Next, A23C U58G C64G: ≤ 0.026; G86A G88A: ≤ 0.026.
In the case of U21G U22C, the nonsense suppression is 1.09.
With C5U C12U U58C G59C, the nonsense suppression was ≤ 0.026.
On to U4C C34G, for which the nonsense suppression turned out to be 0.0649.
Regarding U21G C75A, the nonsense suppression is 1.06.
In the case of A9U C12U it was 0.29.
G59C G67C: the nonsense suppression is ≤ 0.026.
Take C3A C29A G73A: the nonsense suppression is ≤ 0.026.
For the variant U35G G61C, the nonsense suppression is ≤ 0.026.
As for C1G G15A U58C, the nonsense suppression was ≤ 0.026.
Next, C12U A23G A54C: ≤ 0.026; C12G G28C G32U C72G C83G: ≤ 0.026.
Take C11G G67A: the nonsense suppression was ≤ 0.026.
In the case of C11G G67C, the nonsense suppression is ≤ 0.026.
As for G7A C77G, the nonsense suppression is ≤ 0.026.
U21G U35A U58C G61C: the nonsense suppression is ≤ 0.026.
On to A13U A14G A24C G32C, for which the nonsense suppression was ≤ 0.026.
For U17G G25A, the nonsense suppression was ≤ 0.026.
In the case of C72A A74U A89U it was ≤ 0.026.
Turning to U8C G15U U17G A54C, the nonsense suppression was ≤ 0.026.
As to A54G G66A C68G, the nonsense suppression is ≤ 0.026.
As for C27G C82G G84C, the nonsense suppression was ≤ 0.026.
In the case of A13G C29U U58G C82G A87U it was ≤ 0.026.
Next, C29A U70A C83U: ≤ 0.026; C1A G10U G61A A62C G73C: ≤ 0.026; G10U U22A C75A C77G G85U: ≤ 0.026.
Consider C3U A9G U71C, for which the nonsense suppression was ≤ 0.026.
On to U21G G65A A74U, for which the nonsense suppression was ≤ 0.026.
Take U57G C79G: the nonsense suppression is ≤ 0.026.
Consider G28A A33U U63A, for which the nonsense suppression was ≤ 0.026.
Take U16G G67A: the nonsense suppression turned out to be 0.178.
Next, A60C C64G: ≤ 0.026.
As for A33G G61C A89G, the nonsense suppression was ≤ 0.026.
In the case of C5A C56G G88U, the nonsense suppression was ≤ 0.026.
U16A U20G: the nonsense suppression worked out at 1.11.
With U8A C77G, the nonsense suppression was ≤ 0.026.
Take U55G A60U U63A: the nonsense suppression is ≤ 0.026.
Consider G59U C72A A87G, for which the nonsense suppression is ≤ 0.026.
Turning to A33G G61A, the nonsense suppression amounted to 0.0709.
As to C29A U55A G84A A87G, the nonsense suppression was ≤ 0.026.
As for U55G A62C, the nonsense suppression was ≤ 0.026.
As to U16C C56G A60C, the nonsense suppression was ≤ 0.026.
In the case of G15U C34G U63C it was ≤ 0.026; in that of C27G C80U C83A, ≤ 0.026; in that of G18C G32A, ≤ 0.026.
As to C12A U35C A60G, the nonsense suppression was ≤ 0.026.
Next, G10C G61C U63C G73A: ≤ 0.026; A23G G25A U35A: ≤ 0.026; G28U A87U: ≤ 0.026.
In the case of C5G A9C U35G A54C C83A, the nonsense suppression is ≤ 0.026.
Take G6U A33G G86C: the nonsense suppression is ≤ 0.026.
In the case of C27G U57C G73C it was ≤ 0.026.
Consider U8G C79A, for which the nonsense suppression is ≤ 0.026.
On to U63A G66U U71A A87G, for which the nonsense suppression is ≤ 0.026.
G6A U63G C81U: the nonsense suppression is ≤ 0.026.
Consider G10C C34G C68U, for which the nonsense suppression was ≤ 0.026.
Take A14G U20G: the nonsense suppression was ≤ 0.026.
Turning to C27A C75U, the nonsense suppression was ≤ 0.026.
For the variant G59U G69U, the nonsense suppression was ≤ 0.026.
Turning to A13U C56G, the nonsense suppression was ≤ 0.026.
For the variant G6C C11A A23G G25U C34U U55A, the nonsense suppression is ≤ 0.026.
Turning to G6C U16A C56G U57C U58C U71C, the nonsense suppression is ≤ 0.026.
Regarding C1U A23U C79G A89C, the nonsense suppression was ≤ 0.026.
With U2C C27A, the nonsense suppression is ≤ 0.026.
In the case of G10A G65C G73A it was ≤ 0.026.
For the variant U16A U71C, the nonsense suppression was ≤ 0.026.
Turning to U20C C72U C82A, the nonsense suppression was ≤ 0.026.
As for U55C G73U, the nonsense suppression was found to be 0.0422.
Regarding U16A A87G G88A, the nonsense suppression was ≤ 0.026.
Consider A54U G85U, for which the nonsense suppression stood at 1.01.
In the case of A54C C75U, the nonsense suppression was 1.22.
With C12A G26C G88A, the nonsense suppression is ≤ 0.026.
As for G73U G85C, the nonsense suppression was ≤ 0.026.
Next, G10A A13C C80G: ≤ 0.026; A9G U71A C80A C83A A89U: ≤ 0.026.
On to U17G A24U C27U C64A U71G A89G, for which the nonsense suppression is ≤ 0.026.
For the variant A9G, the nonsense suppression is 0.45.
In the case of G7A U58G C82U it was ≤ 0.026; in that of A30C G32U U76C, ≤ 0.026.
In the case of U2G C34U G86U it was ≤ 0.026; in that of C11U G69U A74C G78C, ≤ 0.026; in that of G28A A31G G73C, ≤ 0.026.
U21G A60U G78C: the nonsense suppression is ≤ 0.026.
In the case of C34A C83A, the nonsense suppression was ≤ 0.026.
As for A14G A33G U70C G78A, the nonsense suppression was ≤ 0.026.
With A14U C29U C34G C75A, the nonsense suppression was ≤ 0.026.
Next, C1G U16C G25U C79A: ≤ 0.026; A14C G32C C64A: ≤ 0.026.
Next, G32U G69A: ≤ 0.026; A60C A62C: ≤ 0.026.
In the case of C11U U58G it was ≤ 0.026.
As for U2G U8A, the nonsense suppression is ≤ 0.026.
As for U16C C64G, the nonsense suppression is ≤ 0.026.
Next, U2A G85A: ≤ 0.026; A9G A13C C34G U63A C81G G84A G86U: ≤ 0.026.
Next, U16A G85A: 1.03.
On to G10U U76G C81U, for which the nonsense suppression was ≤ 0.026.
As to A24G A60G C80U, the nonsense suppression is ≤ 0.026.
In the case of G19A U20C G65U G69C G85A it was ≤ 0.026; in that of G65U C68A, ≤ 0.026; in that of A33U G59C G61C, ≤ 0.026.
For the variant A9G C12U U70A, the nonsense suppression is ≤ 0.026.
With U55G G61A U71G, the nonsense suppression was ≤ 0.026.
Regarding A62C U63G, the nonsense suppression is ≤ 0.026.
Next, C29U C72G A74C: ≤ 0.026; C34A U58C: ≤ 0.026.

The values above are taken from the RNAGym collection of RNA variant scans (doi:10.1101/gad.245936.114).
